Assay results from the supplement of paper PMC9446081.
Among all 39,000 compounds or so, about 220 (0.56%) showed activity. The list shows a part of the results.

system: Escherichia coli K-12 BW25113; test: relative growth (OD600 normalised to plate interquartile mean) (fraction); higher = less growth inhibition, active = 0.2 or less; conditions: 50 µM; LB; incubation time: overnight (16-24 h)
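Note: static incubation at 37 °C against the wild-type strain, values averaged over two biological replicates.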

Row | SMILES | relative growth
1 | O=C1CC[C@@H]2NCC[C@H]2N1 | inactive: 0.986
2 | N[C@H]1CCN(c2cccnc2)C1 | inactive: 0.979
3 | O=c1[nH]oc2c1CCNC2 | inactive: 1
4 | CC12CCC3C(CCC4CC(O)CCC43C)C1CCC2O (stereo not given) | inactive: 0.98
5 | O[C@H]1CNC[C@@H]1N1CCCC1 | inactive: 0.971
6 | C[As](C)SC[C@H](NC(=O)CC[C@H](N)C(=O)O)C(=O)NCC(=O)O | inactive: 0.984
7 | COC(=O)[C@]1(Cc2ccccc2CN=[N+]=[N-])N=C(c2ccc(OCCCO)cc2)O[C@@H]1c1ccccc1CN=[N+]=[N-] | inactive: 1.04
8 | CC(C)CC(CN)CC(=O)O (stereo not given) | inactive: 1.07
9 | CN(C)[C@@H](CN)c1cn(C)c2ccccc12 | inactive: 1.02
10 | C[CH2][Hg][S]c1ccccc1C(=O)[O-].[Na+] | active: 0.0484
11 | CC(=O)CC1CCCCN1.Cl (stereo not given) | inactive: 1.01
12 | NCCc1ccc(O)cc1 | inactive: 1.04
13 | CCC(c1cccc(O)c1)C(C)CN(C)C.Cl (stereo not given) | inactive: 0.847
14 | CCC12C=CCN3CCC4(c5ccc(OC)cc5N(C)C4C(O)(C(=O)OC)C1OC(C)=O)C32 (stereo not given) | inactive: 1.01
15 | [N-]=[N+]=CC(=O)OCC(N)C(=O)O (stereo not given) | inactive: 0.893
16 | C[C@@H](N)[C@@H](O)c1ccccc1 | inactive: 0.978
17 | C[C@H](O)[C@@]12[C@H]3CC=C[C@@H]1N2CC3 (stereo not given in full) | inactive: 0.987
18 | CN1C[C@H]2CON[C@@H]2C1 | inactive: 1.01
19 | Cn1cc(NC(=O)c2cc(NC(=O)CNC(=N)N)cn2C)cc1C(=O)NCCC(=N)N | inactive: 1.01
20 | O=C(NC[C@H]1CC[C@@H]2NC[C@@H]2O1)C1CCCC1 | inactive: 0.98
21 | Cl.N=C(N)NN | inactive: 0.909
22 | CCC1(c2ccc(N)cc2)CCC(=O)NC1=O (stereo not given) | inactive: 1.11
23 | O=C(NCNC(=O)N[C@H]1C(=O)NC(=O)N1CO)N[C@H]1C(=O)NC(=O)N1CO | inactive: 0.902
24 | CNCC(=O)c1ccc(O)c(O)c1.Cl | inactive: 1.07
25 | Cc1[nH]c2ccccc2c1CN(C)C | inactive: 1.04

Row | SMILES | relative growth
26 | C[C@@H](N)Cc1cnc[nH]1 | inactive: 0.996
27 | Cc1ccc(OC(=O)N(C)C[C@H]2OCc3ccccc3-c3c(n(C)c4ccccc34)C(=O)N([C@H](C)CO)C[C@@H]2C)cc1 | inactive: 1
28 | COc1ccc2c3c([nH]c2c1)C(C)=NCC3 | inactive: 0.921
29 | N[C@H]1CNC(=O)C1 | inactive: 1.01
30 | CC1CCC2(NC1)OC1CC3C4CC=C5CC(O)CCC5(C)C4CCC3(C)C1C2C (stereo not given) | inactive: 0.957
31 | CN(CC[C@@H](N)CC(=O)N[C@H]1C=C[C@H](n2ccc(N)nc2=O)O[C@@H]1C(=O)O)C(=N)N | inactive: 0.949
32 | COc1ccc(O)c(C(C)(C)C)c1 | inactive: 0.926
33 | COC(=O)C[C@@H]1CC[C@@H]2NC[C@H](O)COC[C@H]2O1 | inactive: 0.991
34 | CC(C)=CCC[C@]1(C)C=Cc2c(O)c3c(c(CC=C(C)C)c2O1)O[C@]12[C@H](C[C@@H]4C[C@H]1C(C)(C)O[C@]2(C/C=C(/C)C(=O)O)[C@@H]4O)C3=O | inactive: 0.877
35 | CC(C)(C)c1o[nH]c(=O)c1C[C@@H](N)C(=O)O | inactive: 0.984
36 | [O-][n+]1ccccc1[S][Zn][S]c1cccc[n+]1[O-] | active: 0.0506
37 | CN[C@H]1C[C@@H](N)[C@H](O)[C@@H](O[C@@H]2O[C@H](CO)[C@H](O)[C@@H]3O[C@@]4(O[C@H]23)O[C@H]([C@@H](N)CO)[C@H](O)[C@H](O)[C@H]4O)[C@@H]1O | active: 0.0323
38 | N=C1NC(=O)N2CC12 (stereo not given) | inactive: 0.832
39 | Cc1ccc(C[C@H]2CCCN2)cc1C | inactive: 0.99
40 | O=c1cccc2n1C[C@@H]1C[C@H]2CN(CCO)C1 | inactive: 1.02
41 | NC(=O)c1cn([C@H]2O[C@@H](CO)[C@H](O)[C@@H]2O)c2ncnc(N)c12 | inactive: 0.892
42 | CO[C@@H]1[C@H](OC(=O)NC(=O)CCl)CC[C@]2(CO2)[C@H]1[C@@]1(C)O[C@@H]1CC=C(C)C | inactive: 0.986
43 | Cc1ccc(C)c(C(=O)[C@H](N)CC(C)C)c1 | inactive: 0.907
44 | O=C1NCc2cnnn2-c2ccccc21 | inactive: 0.974
45 | C[C@@H](N)Cc1ccc(O)cc1 | inactive: 0.992
46 | CN1CCCN(Cc2ccc(CN)cc2)CC1 | inactive: 1.02
47 | CC(C)(C)OC(=O)N1C[C@H]2C[C@@H]1CN2 | inactive: 1
48 | CCC(CC)C(=O)N[C@@H]1[C@@H]2CNC[C@@H]21 | inactive: 1.01
49 | CCC1(CC)C(=O)C=CNC1=O | inactive: 1.11
50 | O=C(O)CNCP(=O)(O)O | inactive: 0.997

Row | SMILES | relative growth
51 | CC1CCC2(NC1)OC1CC3C4CCC5CC(O)CCC5(C)C4CCC3(C)C1C2C.Cl (stereo not given) | inactive: 0.964
52 | C=C(C)C1Cc2c(ccc3c(=O)c4c(oc23)COc2cc(OC)c(OC)cc2-4)O1 (stereo not given) | inactive: 0.962
53 | COc1ccc(C=O)cc1 | inactive: 1.03
54 | CC(=O)OCC1=C(C(=O)[O-])N2C(=O)C(NC(=O)CCCC(N)C(=O)[O-])C2SC1.[Zn+2] (stereo not given) | inactive: 0.996
55 | CN1C[C@@H]2c3nc(N(C)C)ncc3CS(=O)(=O)[C@H]2C1 | inactive: 0.979
56 | CC[n+]1c(-c2ccccc2)c2cc(N)ccc2c2ccc(N)cc21.[Br-] | inactive: 0.915
57 | N#Cc1cccnc1N1CCNCC1 | inactive: 1.01
58 | O=[N+]([O-])O[C@@H]1CO[C@H]2[C@@H]1OC[C@@H]2O | inactive: 0.992
59 | CC(C)=CCCC1(C)C=Cc2c(O)c3c(c(CC=C(C)C)c2O1)OC12C(=CC4CC1C(C)(C)OC2(CC=C(C)C(=O)O)C4O)C3=O (stereo not given) | inactive: 1.07
60 | CCCCCCCCCC(=O)O[C@@H]1[C@@H](C)[C@]2(O)[C@@H](C=C(CO)C[C@]3(O)C(=O)C(C)=C[C@@H]23)[C@@H]2C(C)(C)[C@@]12OC(=O)CCCCCCCCC | inactive: 1.03
61 | NCCc1cccc(O)c1 | inactive: 0.993
62 | C[C@H]1CN([C@@H](C)CO)C(=O)c2c(c3ccccc3n2C)-c2ccccc2CO[C@@H]1CN(C)C(=O)Oc1ccccc1 | inactive: 0.96
63 | COP(=O)(OC)OC(Br)C(Cl)(Cl)Br (stereo not given) | inactive: 0.945
64 | COC(=O)C1=CCCN(C)C1 | inactive: 1.02
65 | O=S(=O)(O)O.Oc1cccc2cccnc12 | active: 0.0986
66 | CC1(C)C(=O)C=CC2(C)C1=C(O)C(=O)C1(C)C2CCC2(C)C(c3ccoc3)CC3OC321 (stereo not given) | inactive: 1.07
67 | O=C(NC(=O)c1c(F)cccc1F)Nc1cc(Cl)c(OC(F)(F)C(F)C(F)(F)F)cc1Cl (stereo not given) | inactive: 1.18
68 | Cl.Oc1noc2c1CCNC2 | inactive: 1.07
69 | Cc1scc(CCN)c1C | inactive: 1.01
70 | CN1CCN([C@@H](CN)c2ccc3c(c2)OCO3)CC1 | inactive: 0.977
71 | C[C@@H]1CN([C@@H](C)CO)C(=O)CCCn2cc(nn2)CO[C@@H]1CN(C)C(=O)Oc1ccc2ccccc2c1 | inactive: 0.955
72 | C=CC=CCC1=C(C)C(OC(=O)C2C(C=C(C)C)C2(C)C)CC1=O (stereo not given) | inactive: 1.02
73 | CCN1C[C@]2(COC)CC[C@H](O)[C@@]34[C@@H]2[C@@H](OC)[C@@H]([C@@H]13)[C@@]1(OC(C)=O)C[C@H](OC)[C@H]2C[C@H]4[C@@H]1[C@@H]2OC(C)=O | inactive: 1
74 | CSC1=NN1c1cc(C)nc(N)n1 | inactive: 1.03
75 | [N-]=[N+]=NCC(=O)N1CCOCC1 | inactive: 0.981

Row | SMILES | relative growth
76 | CC(C)[C@@]1(NC(=O)[C@@H]2C[C@@H]3c4cccc5[nH]cc(c45)C[C@H]3N(C)C2)O[C@@]2(O)[C@@H]3CCCN3C(=O)[C@H](Cc3ccccc3)N2C1=O | inactive: 1
77 | NC1=NC(=O)C2(CCNCC2)N1 | inactive: 1.02
78 | O=C1C[C@@H](CO)CN1 | inactive: 0.993
79 | O=C1C=C2C(=CCOC2O)O1 (stereo not given) | active: 0.0434
80 | Cl.NCC(O)c1ccc(O)cc1 (stereo not given) | inactive: 1.08
81 | O=[N+]([O-])OC1COC2C(O)COC12 (stereo not given) | inactive: 1.2
82 | N#CN1CCCC1 | inactive: 1
83 | c1csc(N2CCNCC2)n1 | inactive: 1
84 | CCC1(O)C(=O)OCc2c1cc1n(c2=O)Cc2cc3ccccc3nc2-1 (stereo not given) | inactive: 0.976
85 | O=C1CCCN1CC#CCN1CCCC1 | inactive: 1.04
86 | C[N+]1(C)C2CCC1CC(OC(=O)C(CO)c1ccccc1)C2.O=[N+]([O-])[O-] (stereo not given) | inactive: 1.03
87 | COCCCNC(=O)C1[C@@H]2CC[C@H]1CNC2 (stereo not given in full) | inactive: 0.963
88 | C1CCC(NC2CCCC2)CC1 | inactive: 0.983
89 | NCCc1ccccn1 | inactive: 1.01
90 | C=CCOC(=O)[C@@H]1[C@@H](C(=O)OC)N(C)[C@@H](c2ccccc2)[C@]12C(=O)Nc1ccc(I)cc12 | inactive: 0.998
91 | NC1Cc2ccccc2C1 | inactive: 0.985
92 | CC(C)Oc1ccccc1CCN | inactive: 1
93 | CC(C)=CCCC1(C)C=Cc2c(O)c3c(c(CC=C(C)C)c2O1)OC12C(=CC4CC1C(C)(C)OC2(CC=C(C)C(=O)O)C4=O)C3=O (stereo not given) | inactive: 1.01
94 | Oc1cc(Cl)ccc1Oc1ccc(Cl)cc1Cl | active: 0.0446
95 | CCOC(=O)c1c(CN2CCN(Cc3ccccc3)CC2)n(Cc2ccccc2)c2cc(Br)c(O)cc12 | inactive: 1.04
96 | CC1(C)C(C=C(Cl)Cl)C1C(=O)OC(C#N)c1cccc(Oc2ccccc2)c1 (stereo not given) | inactive: 0.883
97 | C=C1[C@@H](C)[C@H]2[C@H](Cc3ccccc3)NC(=O)[C@]23[C@H](OC(C)=O)/C=C/[C@](C)(O)C(=O)[C@@H](C)C/C=C/[C@H]3[C@@H]1O | inactive: 0.976
98 | CC(C)(C#N)O[C@@H]1O[C@H](CO)[C@@H](O)[C@H](O)[C@H]1O | inactive: 1.03
99 | COc1cccc(-c2ccc3c(CCN)c[nH]c3c2)c1 | inactive: 0.996
100 | CO/C1=C\C(C)=C\[C@@H](C)[C@@H](O)[C@@H](C)C/C(C)=C/C=C/[C@H](OC)[C@@H]([C@@H](C)[C@@H](O)[C@H](C)C(=O)/C=C/[C@H](C)[C@H](O)C(C)C)OC1=O | inactive: 0.965
